In all, about 420,000 compounds went through this assay and about 64,000 (15%) were called active. This list was built around the results that the source calls inconclusive (neither active nor inactive); the mix of calls is not that of the screen. Calls come from the whole dose curve; as a rule, active = well fitted inhibition curve with a large enough effect; inconclusive = small, poorly fitted or top-dose-only effect; inactive = flat fitted curve, though single readings scatter. Potencies of inconclusive entries are left out as doubtful fits.
assay: qHTS for Inhibitors of human tyrosyl-DNA phosphodiesterase 1 (TDP1): qHTS in cells in absence of CPT; settings: DT40 Tdp1-/- hTDP1 cells, no CPT, ATP luminescence, 48 h; activity change, negative = growth inhibition: at 46.2 µM (top of the series) unless noted; note: nearly all actives have a fitted effect of over 55% in size
How it was run: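 Growth of hTDP1-complemented DT40 Tdp1-knockout cells is measured by ATP luminescence after at least 48 hr compound exposure at 37 °C, with DMSO substituting for the 20 nM CPT used in the parallel screen.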
% is set by controls: 0 for no effect and ±100 for the full control effect; potency is the fitted concentration of half-maximal effect; tags give direction and shape of the fitted curve.

Structure (SMILES) | Potency | activity change, negative = growth inhibition
COc1ccc(C)c2sc(NC(=O)c3ccc(S(=O)(=O)N4CCOCC4)cc3)nc12 | inconclusive [inhibitor, single point] | 
CS(=O)(=O)Nc1ccccc1C(=O)c1ccccc1 |  | inactive: -26.1%
CCOC(=O)c1c(-c2cccs2)csc1NC(=O)c1ccncc1 | inconclusive [inhibitor, partial curve] | 
CC(=O)c1cccc(NC(=O)c2ccc(-n3cncn3)c3ccoc23)c1 | inconclusive [inhibitor, partial curve] | 
CCCc1ccc(-c2ccc(-c3noc(-c4ccncc4)n3)cc2)nc1 | inconclusive [inhibitor, single point] | 
O=C1c2[nH]c3ccccc3c2CC1N1C(=O)c2ccccc2C1=O (stereo unspecified) |  | inconclusive: -30.1% [inhibitor]
COc1cc(OC)cc(C(=O)NCCNc2nc3cc(C)cc(C)c3cc2C#N)c1 | active: 23.1 µM | 
COc1ccc(C2Nc3ccccc3-c3cc(C)nn32)c(OC)c1 (stereo unspecified) | inconclusive [inhibitor, single point] | 
CCOc1ccc(NC(=O)c2cc(-c3ccc(C)c(F)c3)on2)c([N+](=O)[O-])c1 |  | inactive: -12.2%
CCC(C(=O)Nc1ccccc1N1CCCC1)c1ccccc1 (stereo unspecified) | active: 16.4 µM | 
COc1ccc2oc(=Nc3ccccc3)c(-c3nc4ccccc4[nH]3)cc2c1 | inconclusive [inhibitor, partial curve, poor fit] | 
O=C(N/N=C/c1ccccn1)c1cc(-c2ccc(Cl)cc2)nc2ccccc12 | active: 8.2 µM | 
O=C(Nc1ccc(-c2nc3c(ccc4ccccc43)o2)cc1)c1ccco1 | active: 18.4 µM | 
O=C(Cc1cccs1)Nc1nnc(Cc2ccccc2)s1 | inconclusive [inhibitor, single point] | 
CC[C@@](C)(NS(=O)(=O)OCC(Cl)(Cl)Cl)c1ccccc1 | inconclusive [inhibitor, single point] | 
COC(=O)c1ccccc1NS(=O)(=O)c1cc2c3c(c1)CC(=O)N3CCC2 |  | inactive: -25.3%
CCCC[C@@H]1Cc2[nH][nH]c(=O)c2[C@H](c2ccc3ccccc3c2)O1 | active: 18.4 µM | 
N#C/C(=C/c1ccc(Sc2nc3ccccc3[nH]2)o1)c1ccccc1F | active: 16.4 µM | 
COc1cccc(CN(C)C(=O)Cc2c[nH]c3ccccc23)c1 |  | inactive: -14.6%
Cc1ccc(NCc2nnc(SCCN3CCCCC3)n2CC2CCCO2)c(C)c1 (stereo unspecified) |  | inactive: -30%
CCCCCOc1ccc(/C=c2\sc3nc(=O)c(-c4ccccc4)nn3c2=O)cc1OC | inconclusive [inhibitor, single point] | 
